The values below come from US20230338565A1, “ANTIBODY DRUG CONJUGATE, PREPARATION METHOD THEREFOR AND USE THEREOF” (SICHUAN KELUN-BIOTECH BIOPHARMACEUTICAL CO., LTD., priority 2020, published 2023).

The target of series [1] is T1, human Claudin 18.2 on cell membrane (Homo sapiens, UniProt P56856).
T1 construct: expressed in transfected cells
Kind of series: Affinity to HEK293T-Claudin 18.2 by flow cytometry. The following applies: binding to HEK293T-Claudin 18.2 cells. The protocol:
The affinity of 2C6.9-hz21 to human Claudin 18.2 on cell membrane was detected using HEK293T-Claudin 18.2 cells. The specific procedures were as follows: HEK293T-Claudin 18.2 cells were detached and centrifuged, followed by being washed twice with PBS. And then the cells were resuspended in PBS containing 1% BSA and were plated into a 96-well tip bottom plate at 300000 cells per well in a volume of 50 μl for 20 wells in total. […] of 2C6.9-hz21 and IMAB362 antibody were separately then added with 11 concentrations starting from 1000 nM with three-fold dilution to each well. Human IgG was served as negative control. The reactions were mixed well and incubated for 1 h at 4° C. in the dark, followed by three times of washing with PBS, the FITC-labelled anti-human Fc secondary antibody (Biolegend, 409322) was added and incubated for 0.5 h at 4° C. in the dark. Detection was performed by flow cytometry (Beckman, Cytoflex) after being washed for three times with PBS.
(In flow cytometry, cells or beads pass a laser one at a time.)

In series [2] the target is T2, human Claudin 18.2 (Homo sapiens, UniProt P56856).
T2 construct: expressed in transfected cells; cells formaldehyde-fixed for the cell ELISA
Kind of series: Cell ELISA on L929-Claudin 18.2 cells. Format: binding. The following applies: binding to L929-Claudin 18.2 cells, Cellular ELISA. The protocol:
Human Claudin18.2 belongs to the tetraspanin family and has a complex structure. Cell ELISA was thus carried out to maintain the structure of Claudin18.2. The stable cell lines L929-Claudin 18.2 constructed in 6.1 were used for detection. Specifically, L929-Claudin 18.2 adherent cells were detached by 2 mM EDTA treatment. The cells were resuspended and adjusted to 2×10^5/mL and 100 μL of the resuspension was plated into a 96-well plate and incubated overnight at 37° C. The next day, the media was removed, and the plate was washed with PBS once. 100 μL/well 4% formaldehyde was added to the plate. After 30 min of incubation at room temperature, formaldehyde was removed, followed by being washed twice with PBS. Blocking buffer (PBS containing 2% BSA) was then added to the plate at 100 μL/well, and incubated at 37° C. for 2 h. After removal of blocking buffer, 100 μL/well of serially diluted antibodies (starting from 1 μM, with 4-fold dilution, for a total of 11 concentrations) were added to the corresponding wells, which were incubated at 37° C. for 2 h afterwards. The plate was washed with 250 μL PBST for 5 times, and was allowed to stand for 2 min each time. 100 μL/well of horseradish peroxidase labeled anti-Human IgG secondary antibody (HRP-anti-Human IgG, Jackson ImmunoResearch, 109-035-003) diluted 1:10000 in PBS (containing 2% BSA) was added to the plate. The plate was incubated at 37° C. for 1 h and washed with 250 μL of PBST 6 times, wherein the plate was allowed to stand for 2 min each time. 100 μL/well of TMB solution (Thermo, 34029) was added. The reactions were incubated at 37° C. for 20 min and stopped with 50 μL 2 mol/L H2504. The OD450 nm absorbance values were obtained on a plate reader (MD, SpectraMax M2) and the results were subjected to curve fitting by Graphpad Prism.
A cell-based ELISA method was carried out to determine the affinity of 2C6.9-TL001 (DAR: 7.12) to Claudin 18.2 on the surface of cell membrane. […]
A general note: An ELISA detects its analyte on a solid surface through an enzyme-linked reagent.

Series [3] addresses T2, human Claudin 18.2. Nature of the series: Specificity by FACS, HEK293T-human Claudin18.2 cells. The series is classed as binding. The following applies: antibody 1000 nM.
A further series concerns the target T3, human Claudin 18.1 (Homo sapiens, UniProt P56856).
T3 construct: expressed in transfected cells
Nature of the series: Specificity by FACS, HEK293T-human Claudin 18.1 cells. The series is classed as binding. The following applies: antibody 1000 nM.

The subject of series [4] is HEK293T-Claudin 18.2 cells. Nature of the series: ADCC, NK cell mediated killing assay. The following applies: NK92MI-CD16a effector cells, LDH detection. The series is classed as cell-based, human. The protocol:
2C6.9 belongs to IgG1 subtype and has relative strong antibody-dependent cell-mediated cytotoxicity (ADCC). NK cell mediated killing assay was used to determine the ADCC activity of 2C6.9. The specific procedures were as follows: HEK293T-Claudin 18.2 cells were harvested and centrifuged, followed by adjustment of cell density. 1×10^4/well of cells were plated on a plate and incubated overnight. The medium was removed on the next day. NK92MI-CD16a cells (Huabo Biopharm) were centrifuged, resuspended in MEMA medium and adjusted to 1×10^6/mL, then 50 μL/well cells were added to the corresponding wells. 2C6.9-hz21 and IMAB362 antibodies were diluted with MEMA medium. For HEK293T-Claudin18.2 cells, 10 antibody concentrations were tested, starting from 40 μg/mL with 5-fold dilution. For NUGC-4 cells, 11 antibody concentrations were tested, starting from 2 mg/mL with 5-fold dilution. 50 μL/well of the diluted antibodies were added to the corresponding wells and the reactions were left to stand in incubator at 37° C., 5% CO2 and incubated for 5.5 h. Lysis buffer was then added to the positive control well and incubated for another 0.5 h. 50 μL/well of Lactate Dehydrogenase (LDH) detection agent (DOJINDO LABORATORISE, CK12) were added to the wells and the absorbance at 490 nm were taken every 10 min on a microplate reader (MD, SpectraMax M2). […]

B1: 2C6.9-hz21: humanized anti-human Claudin 18.2 IgG1 kappa monoclonal antibody; heavy chain SEQ ID NO: 19, light chain SEQ ID NO: 20 (antibody)
heavy: QVQLQESGPGLVKPSETLSLTCTVSGFSLTRYGVSWIRQPPGKGLEWIGVIWGEGNTNYNPSLKSRVTISKDSSKSQVSLKLSSVTAADTAVYYCARVNFGNALDYWGQGTLVTVSS[human IgG1 constant region not spelt out]
light: DIVMTQSPDSLAVSLGERATINCKSSQSLLNSGNQKNYLTWYQQKPGQPPKLLIYWASTRDSGVPDRFSGSGSGTDFTLTISSLQAEDVAVYYCQNDFIFPLTFGGGTKVEIKRTVAAPSVFIFPPSDEQLKSGTASVVCLLNNFYPREAKVQWKVDNALQSGNSQESVTEQDSKDSTYSLSSTLTLSKADYEKHKVYACEVTHQGLSSPVTKSFNRGEC
modifications: Full length amino acid sequence of heavy chain of humanized antibody 2C6.9-hz21; Full length amino acid sequence of light chain of humanized antibody 2C6.9-hz11/2C6.9-hz21
For the molecule B1, the “Max MFI” value in series [1] stood at 165866.3. For the same molecule, the “Max signal value (OD450)” value with human Claudin 18.2 [2] is given as 0.92. Further, the “binding to human Claudin 18.2” value with human Claudin 18.2 [3] was “specifically bind to human Claudin 18.2”. Besides, the “binding to human Claudin 18.1” value with human Claudin 18.1 is listed as “not to human Claudin 18.1”. In series [4], the “Max. cytotoxicity (%)” value is listed as 30%.
